According to patent publication US20230192795A1 (Hoffmann-La Roche, published 2023):

T1: IL-7Rα/IL-2Rγ on human T cells (human, UniProt P16871 21-459; P31785 23-369)
T1 sequence (looked up) 1: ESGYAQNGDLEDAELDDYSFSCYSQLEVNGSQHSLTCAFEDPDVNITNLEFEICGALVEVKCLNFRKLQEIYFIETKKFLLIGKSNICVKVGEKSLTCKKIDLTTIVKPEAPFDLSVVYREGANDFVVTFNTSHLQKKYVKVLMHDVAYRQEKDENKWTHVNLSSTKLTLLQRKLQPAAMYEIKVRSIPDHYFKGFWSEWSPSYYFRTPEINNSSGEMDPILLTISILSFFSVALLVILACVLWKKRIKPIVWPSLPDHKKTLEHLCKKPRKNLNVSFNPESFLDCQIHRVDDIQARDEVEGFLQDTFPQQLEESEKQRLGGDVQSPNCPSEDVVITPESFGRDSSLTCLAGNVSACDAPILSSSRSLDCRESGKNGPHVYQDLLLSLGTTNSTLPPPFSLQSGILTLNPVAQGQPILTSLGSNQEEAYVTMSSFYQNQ
T1 sequence (looked up) 2: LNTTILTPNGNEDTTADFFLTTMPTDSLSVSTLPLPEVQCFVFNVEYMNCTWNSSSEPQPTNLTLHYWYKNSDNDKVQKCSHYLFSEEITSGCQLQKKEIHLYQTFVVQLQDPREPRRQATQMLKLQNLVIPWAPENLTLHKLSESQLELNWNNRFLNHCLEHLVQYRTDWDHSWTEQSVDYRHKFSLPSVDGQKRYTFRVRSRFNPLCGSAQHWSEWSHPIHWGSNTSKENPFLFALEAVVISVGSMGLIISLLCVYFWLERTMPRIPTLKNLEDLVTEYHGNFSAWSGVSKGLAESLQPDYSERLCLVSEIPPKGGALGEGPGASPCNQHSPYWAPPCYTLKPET

B1: PD1-IL7-VAR22 (I88K) (other)
light: DIVMTQSPDSLAVSLGERATINCKASESVDTSDNSFIHWYQQKPGQSPKLLIYRSSTLESGVPDRFSGSGSGTDFTLTISSLQAEDVAVYYCQQNYDVPWTFGQGTKVEIKRTVAAPSVFIFPPSDEQLKSGTASVVCLLNNFYPREAKVQWKVDNALQSGNSQESVTEQDSKDSTYSLSSTLTLSKADYEKHKVYACEVTHQGLSSPVTKSFNRGEC
heavy 1: EVQLLESGGGLVQPGGSLRLSCAASGFSFSSYTMSWVRQAPGKGLEWVATISGGGRDIYYPDSVKGRFTISRDNSKNTLYLQMNSLRAEDTAVYYCVLLTGRVYFALDSWGQGTLVTVSSASTKGPSVFPLAPSSKSTSGGTAALGCLVKDYFPEPVTVSWNSGALTSGVHTFPAVLQSSGLYSLSSVVTVPSSSLGTQTYICNVNHKPSNTKVDKKVEPKSCDKTHTCPPCPAPEAAGGPSVFLFPPKPKDTLMISRTPEVTCVVVDVSHEDPEVKFNWYVDGVEVHNAKTKPREEQYNSTYRVVSVLTVLHQDWLNGKEYKCKVSNKALGAPIEKTISKAKGQPREPQVCTLPPSRDELTKNQVSLSCAVKGFYPSDIAVEWESNGQPENNYKTTPPVLDSDGSFFLVSKLTVDKSRWQQGNVFSCSVMHEALHNHYTQKSLSLSPGK
heavy 2: EVQLLESGGGLVQPGGSLRLSCAASGFSFSSYTMSWVRQAPGKGLEWVATISGGGRDIYYPDSVKGRFTISRDNSKNTLYLQMNSLRAEDTAVYYCVLLTGRVYFALDSWGQGTLVTVSSASTKGPSVFPLAPSSKSTSGGTAALGCLVKDYFPEPVTVSWNSGALTSGVHTFPAVLQSSGLYSLSSVVTVPSSSLGTQTYICNVNHKPSNTKVDKKV[human IgG1 Fc with changes left out]GGGGSGGGGSGGGGSDCDIEGKDGKQYESVLMVSIDQLLDSMKEIGSNCLNNEFNFFKRHICDANKEGMFLFRAARKLRQFLKMNSTGDFDLHLLKVSEGTTKLLNCTGQVKGRKPAALGEAQPTKSLEENKSLKEQKKLNDLCFLKRLLQEIKTCWNKILMGTKEH
notes: Format as m1; IL-7 with I88K; also called PD1-IL7 - I88K(Var22)
B2: PD1-IL7-VAR27 (N143K) (other)
light: B1 light
heavy 1: B1 heavy 1
heavy 2: EVQLLESGGGLVQPGGSLRLSCAASGFSFSSYTMSWVRQAPGKGLEWVATISGGGRDIYYPDSVKGRFTISRDNSKNTLYLQMNSLRAEDTAVYYCVLLTGRVYFALDSWGQGTLVTVSSASTKGPSVFPLAPSSKSTSGGTAALGCLVKDYFPEPVTVSWNSGALTSGVHTFPAVLQSSGLYSLSSVVTVPSSSLGTQTYICNVNHKPSNTKVDKKV[human IgG1 Fc with changes left out]GGGGSGGGGSGGGGSDCDIEGKDGKQYESVLMVSIDQLLDSMKEIGSNCLNNEFNFFKRHICDANKEGMFLFRAARKLRQFLKMNSTGDFDLHLLKVSEGTTILLNCTGQVKGRKPAALGEAQPTKSLEENKSLKEQKKLNDLCFLKRLLQEIKTCWKKILMGTKEH
notes: Format as m1; IL-7 with N143K; also called PD1-IL7 -N143K (Var27)
B3: PD1-IL7-VAR29 (N-Glc KO, T72A) (other)
light: B1 light
heavy 1: B1 heavy 1
heavy 2: EVQLLESGGGLVQPGGSLRLSCAASGFSFSSYTMSWVRQAPGKGLEWVATISGGGRDIYYPDSVKGRFTISRDNSKNTLYLQMNSLRAEDTAVYYCVLLTGRVYFALDSWGQGTLVTVSSASTKGPSVFPLAPSSKSTSGGTAALGCLVKDYFPEPVTVSWNSGALTSGVHTFPAVLQSSGLYSLSSVVTVPSSSLGTQTYICNVNHKPSNTKVDKKV[human IgG1 Fc with changes left out]GGGGSGGGGSGGGGSDCDIEGKDGKQYESVLMVSIDQLLDSMKEIGSNCLNNEFNFFKRHICDANKEGMFLFRAARKLRQFLKMNSAGDFDLHLLKVSEGTTILLNCTGQVKGRKPAALGEAQPTKSLEENKSLKEQKKLNDLCFLKRLLQEIKTCWNKILMGTKEH
notes: Format as m1; IL-7 with T72A (N-glycosylation site knock-out)
B4: Reference Molecule 5 (other)
light: B1 light
heavy 1: B1 heavy 1
heavy 2: EVQLLESGGGLVQPGGSLRLSCAASGFSFSSYTMSWVRQAPGKGLEWVATISGGGRDIYYPDSVKGRFTISRDNSKNTLYLQMNSLRAEDTAVYYCVLLTGRVYFALDSWGQGTLVTVSSASTKGPSVFPLAPSSKSTSGGTAALGCLVKDYFPEPVTVSWNSGALTSGVHTFPAVLQSSGLYSLSSVVTVPSSSLGTQTYICNVNHKPSNTKVDKKV[human IgG1 Fc with changes left out]GGGGSGGGGSGGGGSDCDIEGKDGKQYESVLMVSIDQLLDSMKEIGSNCLNNEFNFFKRHICDANKEGMFLFRAARKLRQFLKMNSTGEFDLHLLKVSEGTTILLNCTGQVKGRKPAALGEAQPTKSLEENKSLKEQKKLNDLCFLKRLLQEIKTCWNKILMGTKEH
notes: Format as m1; also called P1AF9647-027

Key:
[1] = target: T2, Human IL7Ra-IL2Rγ-Fc heterodimer (human, biotin on the avi tag); assay: SPR, captured from supernatant, 800 nM receptor-Fc single injection
T2 construct: Extracellular domains of IL-7Ralpha and IL-2Rgamma fused to Fc knob and Fc hole; also called hu IL7Ra-IL2Rγ-Fc avi biotin; human IL7Ra-IL2Rg-Fc biotin
Description: (§1) Surface Plasmon Resonacne (SPR) experiments were performed on a Biacore T200 with HBS-EP+ as running buffer (0.01 M HEPES pH 7.4, 0.15 M NaCl, 0.005% Surfactant P20 (BR-1006-69, GE Healthcare)). Fc specific antibodies (Roche internal) were directly immobilized by amine coupling on a CM5 chip (GE Healthcare). The PDI-IL7 constructs were captured from supernatants for 120 s at 100 nM. […] Only the extracellular domains were fused to Fc domains, produced in HEK Expi Cells and purified by two-step column chromatography including affinity purification via Protein A followed by size-exclusion chromatography. A single injection of 800 nM hu IL 7Ra-IL2Rγ-Fc heterodimer was passed over the ligand at 30 µ1/min for 240 sec to record the association phase. The dissociation phase was monitored for 360 s and triggered by switching from the sample solution to HBS-EP+. The chip surface was regenerated after every cycle using one injection of 10 mM glycine pH 2 for 60 sec. Bulk refractive index differences were corrected for by subtracting the response obtained on the reference flow cell 1. The response units after the capture step and at the end of the association phase were recorded and a ratio of binding to capture was calculated. The single binding curves were fitted in the dissociation phase to obtain a koff for ease of comparison (Biacore Evaluation software, GE Healthcare).
The ratio of binding to capture was calculated and the dissociation phase was fitted to a single curve to support the characterization of the off-rate.

[2] = target: T1, IL-7Rα/IL-2Rγ on human T cells; assay: cell-based or functional assay
[3] = target: human PD-1 on T cells (human, UniProt Q15116 25-288); assay: cell-based or functional assay
[4] = target: T2, Human IL7Ra-IL2Rγ-Fc heterodimer; assay: SPR, captured from supernatant, 800 nM receptor-Fc single injection; remark: listed apart in the source
Description: as §1
The ratio of binding to capture was calculated and the dissociation phase was fitted to a single curve to support characterization of the off-rate. All N-glycosylation knock-out variants (single and triple mutants) have an off-rate similar to wild-type IL7 (Table 13).

[5] = target: T1, IL-7Rα/IL-2Rγ on human T cells; assay: cell-based or functional assay; remark: listed apart in the source
[6] = target: T2, Human IL7Ra-IL2Rγ-Fc heterodimer; assay: SPR (Example 2.4), captured via anti-P329G, receptor-Fc 2.34-300 nM, 1:1 fit, single value
Description: SPR experiments were performed on a Biacore 8 K with HBS-EP + 1 mg/ml BSA as running buffer. Anti-P329G Fc specific antibody (Roche internal) was directly immobilized by amine coupling on a C1 chip (Cytiva). The PD1-IL7 constructs were captured for 140 s at 5 nM. […] The dissociation phase was monitored for 800 s and triggered by switching from the sample solution to running buffer. The chip surface was regenerated after every cycle using two injections of 10 mM glycine pH 2 for 60 sec. Bulk refractive index differences were corrected for by subtracting the response obtained on the reference flow cell (containing immobilized anti P329G Fc specific IgG only). The affinity constants were derived from the kinetic rate constants by fitting to a 1:1 Langmuir binding using the Biacore evaluation software (Cytiva).

UniProt Q15116, sequence (Q15116 25-288 limits assumed): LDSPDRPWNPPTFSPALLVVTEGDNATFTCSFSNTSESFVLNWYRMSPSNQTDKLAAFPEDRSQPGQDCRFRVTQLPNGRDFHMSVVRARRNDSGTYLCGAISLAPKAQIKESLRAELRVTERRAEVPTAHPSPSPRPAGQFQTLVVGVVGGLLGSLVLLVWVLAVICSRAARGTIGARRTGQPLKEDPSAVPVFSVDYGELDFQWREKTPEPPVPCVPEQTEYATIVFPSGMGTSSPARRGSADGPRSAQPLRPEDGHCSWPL

Row | Binder | koff [1] | fold increase in EC50, EC50 [PD1+]/EC50 PD1-IL7wt [PD1+] [2] | fold increase in EC50, EC50 [with PD1bl]/EC50 [PD1+] [3] | further results
1 | B1 | 0.00111 s⁻¹ | 0.6 fold | 1.7 fold | –
2 | B2 | 0.014 s⁻¹ | 7.8 fold | 4.7 fold | –
3 | B3 | – | – | – | koff [4]: 0.000645 s⁻¹
4 | B4 | – | – | – | STAT5-P Area (PD1+) [5]: 113; STAT5-P Area (PD1 blocked) [5]: 81.6; Kd [6]: 0.746 nM; koff [6]: 0.000277 s⁻¹; kon [6]: 372000 M⁻¹ s⁻¹
